From the supplement of paper PMC4604168 (melanoma cell lines)
This is one part of the list. Most values come without repeats; read them as rough.

Tested on: WM1716
Assay: cell count relative to DMSO control; melanoma cells; higher = more viable cells
Settings: library dose: standard library concentration; 72 h
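Note: cells treated in 1,536-well plates, then fixed and DAPI-stained, with nuclei counted from automated high-throughput microscope images.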

Row | SMILES | cell count [%]
1 | C=CCNC1=C2C[C@@H](C)C[C@H](OC)[C@H](O)[C@@H](C)/C=C(\C)[C@H](OC(N)=O)[C@@H](OC)/C=C\C=C(/C)C(=O)NC(=CC1=O)C2=O [Tanespimycin] + Oc1nc(-c2ccc(C(F)(F)F)cc2)nc2c1CSCC2 [XAV939] (first compound 0.01 µM, partner dose 10 µM) | 41.1
2 | CNC(=O)c1cc(Oc2ccc(NC(=O)Nc3ccc(Cl)c(C(F)(F)F)c3)cc2)ccn1 [sorafenib] + CCc1ccc(CCOc2ccc(CC3SC(=O)NC3=O)cc2)nc1 [pioglitazone] (first compound 2 µM, partner dose 10 µM) | 73.6
3 | C[C@@H](Oc1cc(-c2cnn(C3CCNCC3)c2)cnc1N)c1c(Cl)ccc(F)c1Cl [Crizotinib] + O=S(=O)(c1ccccc1)N(CC(F)(F)F)c1ccc(C(O)(C(F)(F)F)C(F)(F)F)cc1 [T0901317] (first compound 1 µM, partner dose 7 µM) | 65.7
4 | CN1CCN(c2ccc3nc(-c4c(N)c5c(F)cccc5[nH]c4=O)[nH]c3c2)CC1 [Dovitinib] + O=C(O)C(=O)Nc1sc2c(c1C(=O)O)CCNC2 [TCS401] (first compound 0.5 µM, partner dose 8.33333 µM) | 66.7
5 | CS(=O)(=O)CCNCc1ccc(-c2ccc3ncnc(Nc4ccc(OCc5cccc(F)c5)c(Cl)c4)c3c2)o1 [lapatinib] + N#Cc1c(O)c2c(-c3ccc(-c4ccccc4O)cc3)csc2[nH]c1=O [A769662] (first compound 4 µM, partner dose 10 µM) | 99.9
6 | CS(=O)(=O)CCNCc1ccc(-c2ccc3ncnc(Nc4ccc(OCc5cccc(F)c5)c(Cl)c4)c3c2)o1 [lapatinib] + O=C(O)C(=O)Nc1sc2c(c1C(=O)O)CCNC2 [TCS401] (first compound 4 µM, partner dose 8.33333 µM) | 100
7 | CN1CCN(c2ccc3nc(-c4c(N)c5c(F)cccc5[nH]c4=O)[nH]c3c2)CC1 [Dovitinib] + N#Cc1c(O)c2c(-c3ccc(-c4ccccc4O)cc3)csc2[nH]c1=O [A769662] (first compound 0.5 µM, partner dose 10 µM) | 69.3
8 | C[C@@H](Oc1cc(-c2cnn(C3CCNCC3)c2)cnc1N)c1c(Cl)ccc(F)c1Cl [Crizotinib] + O=C(Nc1ccccc1)c1cc([N+](=O)[O-])ccc1Cl [GW9662] (first compound 1 µM, partner dose 10 µM) | 82.6
